Patent CN114716553A (BEIJING KENUO XINCHENG TECH CO LTD, dated 2022)

Legend:
[1] = target: T1, 人LILRB4 (on LILRB4-positive cells) (human, UniProt Q8NHJ6 22-448); assay: cell-based or functional assay
[2] = target: T1, 人LILRB4 (on LILRB4-positive cells); assay: flow cytometry on THP-1 cells
[3] = target: T2, 人LILRB4重组蛋白(购于义翘，Cat.16742-H08H) (human, UniProt Q8NHJ6 22-259); assay: BLI (Octet QKe), antibody captured on AHC probe, antigen 100 nM, 1:1 Langmuir fit
T2 construct: Bought protein; also called human LILRB4 recombinant protein

Row | Binder | EC50 of T cell activation (LILRB4 Effector Reporter cells with APOE/TCR Activator/CHO cells, luciferase) [1] | EC50 [2] | Kd [3] | koff [3] | kon [3]
1 | chH9 (Fc fusion, Camel VHH fused to human Fc, expressed in HEK293; also called chH9嵌合抗体) QVQLQESGGGSVQAGGSLRLSCAVSEYVYSRCTMAWYRQAPGKERELVSAFDSGETTWYADSVKGRFTISQDNAKNTVYLQMNSLKPEDTAMYYCNTVGVKSVKSGGGSWCFSPDYWGQGTQVTVSSAS[letters of human IgG1 Fc with changes omitted] | 64 pM | 440 pM |  |  | 
2 | chC7 (Fc fusion, Camel VHH fused to human Fc, expressed in HEK293; also called chC7嵌合抗体) QVQLQESGGGSVQAGGSLRLSCAASEYTYSRHCMAWFRQAPGKEREGVATIYTGGGITRYADSVKGRFTISQDNAKNTVYLQMNSLKPEDTAMYYCAADIASRACVTDPFPLKHAQFSSWGQGTQVTVSSAS[letters of human IgG1 Fc with changes omitted] |  | 390 pM |  |  | 

Stronger by EC50 [2], values ahead:

Row | EC50 of T cell activation (LILRB4 Effector Reporter cells with APOE/TCR Activator/CHO cells, luciferase) [1] | EC50 [2] | Kd [3] | koff [3] | kon [3] | Binder
3 | 43 pM | 310 pM |  |  |  | chD5 (Fc fusion, Camel VHH fused to human Fc, expressed in HEK293; also called chD5嵌合抗体) QVQLQESGGGSVQAGGSLRLSCATSGDTYSTLCMGWFRQAPGKEREGVAAIYRGGDSTVYADSVKGRFTISQDNAKNTVYLQMNGLKPEDTAIYYCAASSLGRCAADIRTGPPFWAVGFRYWGQGTQVTVSSAS[letters of human IgG1 Fc with changes omitted]
4 |  | 270 pM | 312 pM | 9.3e-05 s⁻¹ | 298000 M⁻¹ s⁻¹ | chD2 (Fc fusion, Camel VHH fused to human Fc, expressed in HEK293, Protein A purified; also called chD2嵌合抗体; chD2重组蛋白) QVQLQESGGGSVQAGGSLRLSCTASGYTASSDYMGWFRQAPGKKREGVACINTNGGETYHANSVSGRFTISRDNAKNTVYLQMNSLKPDDTAMYYCAVGRTNPDSYGGSRCLLAPEYTYWGQGTQVTVSSAS[letters of human IgG1 Fc with changes omitted]
5 |  | 220 pM |  |  |  | chC6 (Fc fusion, Camel VHH fused to human Fc, expressed in HEK293; also called chC6嵌合抗体) QVQLQESGGGLVQPGGSLRLSCAASGLAFSRYYMSWVRQAPGKGLEWVSGIRSDGLSTSYADSVKGRFTISRDNAKNTLFLQMNNLKSEDTALYYCATGVGDSGDYRGQGTQVTVSSAS[letters of human IgG1 Fc with changes omitted]
